Experiment [1] concerns C. albicans (strain SC5314). Kind of experiment: Peptide-pulsed DC vaccination of mice, then lethal i.v. C. albicans challenge (survival, kidney CFUs). The protocol:
Survival times were evaluated statistically by Kaplan-Meier estimator (GraphPad Prism, version 4). All analyses included five mice per group (n=5). A two-tailed t test was used.

The test system of experiment [2] is C. albicans cells (strain 3153A). Type of experiment: in vivo, Candida albicans. The conditions noted are these: lethal dose C. albicans 3153A; compared to controls and other groups. The protocol: Fba-8MAP and Met6-8MAP peptides were administered as a mixture using alum (aluminum hydroxide gel, Sigma) as adjuvant. Mice were immunized by s.c. injection with 100 μl of 2.5 μg of either Fba-8MAP conjugate or Met6-8MAP conjugate with 50 μg alum on days 1, 21 and 42. Sera from groups of mice given DPBS buffer only, or adjuvant only were used as negative controls.
A two-tailed t test was used.
The Fba-8MAP conjugate or the Met6-8MAP conjugate was administered as a mixture with an alum adjuvant (aluminum hydroxide gel, Sigma). Mice were immunized by subcutaneous (s.c.) injection of 0.1 ml of DPBS buffer containing either 2.5 μg of Fba-8MAP or 2.5 μg of Met6-8MAP, mixed with 50 μg alum, on days 1, 21 and 42. Negative control groups of mice were given the same volume of DPBS buffer, or the same volume of DPBS buffer with alum adjuvant. Groups immunized with peptide-pulsed DCs were used as positive controls.

On to “YGKDVKDLFDYAQE (Fba peptide) [14-mer peptide from C. albicans cell wall protein fructose-bisphosphate aldolase]”, for which the “fungal CFUs in kidneys compared to control animals” value in experiment [1] (C. albicans SC5314) is recorded as “greatly reduced or even non-detectable”. In addition, the “kidney CFU levels” value in experiment [2] was “lowest kidney CFU levels”.

In the case of “PRIGGQRELKKITE (Met6 peptide) [14-mer peptide from C. albicans cell wall protein Met6]”, the “protection / survival time compared to control mice” value in experiment [1] (lethal dose C. albicans SC5314 i.v., listed as Met6 peptide) is listed as “significantly prolonged survival time”. The “kidney CFU levels” value in experiment [2] was “lowest kidney CFU levels”.

These data come from patent US10590178B2 (priority 2014, dated 2020).
